# In all, about 81,000 sequences were measured (“one-hybrid fitness for binding parS DNA”: median about -0.17, highest 2% from about 0.51 on). Some of the results follow.
# B1: Caulobacter ParB omega fusion; a variant is named by its letters at X, in order, B8GW30 (parent)
# chain: MESVVVGEPGMSEGRRGLGRGLSALLGEVDAAPAQAPGEQLGGSREAPIEILQRNPDQPRRTFREEDLEDLSNSIREKGVLQPILVRPSPDTAGEYQIVAGERAWRAAQRAGLKTVPIMVRELDDLAVLEIGIIENVQRADLNVLEEALSYKVLMEKFERTQENIAQTIGKSXSHVANXMRLLXLPDEVQSYLVSGELTAXHARAIAAAADPVALAKQIIEGGLSVRETEALARKAPNLSAGKSKGGRPPRVKDTDTQALESDLSSVLGLDVSIDHRGSTGTLTITYATLEQLDDLCNRLTRGI
# Variants of: B1
# Assay: one-hybrid fitness for binding parS DNA (scaled: cognate 1, non-cognate 0); higher = stronger binding
# Settings: with parS DNA site
# In short: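 The reporter was HIS3, with the binding site 19 bp from the promoter, in E. coli USO used for bacterial one-hybrid selection of Caulobacter ParB libraries with four specificity codons randomised. Growth was on M9 lacking histidine, with 0.1 mM IPTG and 5 mM 3-AT, for 48 hours at 37°C. Illumina sequencing covered plasmids before and after selection; three replicate libraries were pooled and variants with under 10 reads dropped. A fitness score is the log change in variant-to-wild-type read ratio, rescaled to the cognate and non-cognate references.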
row,Variant,one-hybrid fitness for binding parS DNA
1,YRTR,≤ 0.2
2,AWDT,≤ 0.2
3,EHEN,≤ 0.2
4,VVNI,≤ 0.2
5,FLEM,≤ 0.2
6,PTQE,≤ 0.2
7,NQMN,≤ 0.2
8,VHHW,≤ 0.2
9,ANAD,≤ 0.2
10,YENS,≤ 0.2
11,LANS,≤ 0.2
12,DDQL,≤ 0.2
13,TARG,≤ 0.2
14,TVYR,≤ 0.2
15,FRVA,≤ 0.2
16,VTQR,≤ 0.2
17,SDYQ,≤ 0.2
18,SQDL,≤ 0.2
19,YTGG,≤ 0.2
20,SIHC,≤ 0.2
21,RKYK,≤ 0.2
22,QQKT,≤ 0.2
23,SPPS,≤ 0.2
24,SAWV,≤ 0.2
25,QSVD,≤ 0.2

row,Variant,one-hybrid fitness for binding parS DNA
1,KDRW,≤ 0.2
2,ITVR,≤ 0.2
3,SRLI,≤ 0.2
4,TYPW,≤ 0.2
5,EAVQ,≤ 0.2
6,QMPF,≤ 0.2
7,GNPI,≤ 0.2
8,TQRK,≤ 0.2
9,RNMW,≤ 0.2
10,WQNG,≤ 0.2
11,PVHA,≤ 0.2
12,HTMV,≤ 0.2
13,CVCT,≤ 0.2
14,CTFR,≤ 0.2
15,ELEP,≤ 0.2
16,RMPW,≤ 0.2
17,VTSA,≤ 0.2
18,GAVN,≤ 0.2
19,RKFW,≤ 0.2
20,WGPR,≤ 0.2
21,GTWR,≤ 0.2
22,QKQK,≤ 0.2
23,LYWA,≤ 0.2
24,QIHS,≤ 0.2
25,YHSW,≤ 0.2

row,Variant,one-hybrid fitness for binding parS DNA
1,SPYL,≤ 0.2
2,KKDG,≤ 0.2
3,IMFG,≤ 0.2
4,QRPF,≤ 0.2
5,SKCM,≤ 0.2
6,LQKL,≤ 0.2
7,RKNR,≤ 0.2
8,ISNF,≤ 0.2
9,LWKR,≤ 0.2
10,HTSA,≤ 0.2
11,QTMI,≤ 0.2
12,VPST,≤ 0.2
13,PTVC,≤ 0.2
14,YTGC,≤ 0.2
15,AKQG,≤ 0.2
16,SSKV,≤ 0.2
17,ELLS,≤ 0.2
18,QCLS,≤ 0.2
19,INVY,≤ 0.2
20,HPMI,≤ 0.2
21,HNNK,≤ 0.2
22,DYNS,≤ 0.2
23,TAMC,≤ 0.2
24,SWDT,≤ 0.2
25,LDWE,≤ 0.2

row,Variant,one-hybrid fitness for binding parS DNA
1,ATNN,≤ 0.2
2,GNTY,≤ 0.2
3,FREY,≤ 0.2
4,SVGR,≤ 0.2
5,DLDL,≤ 0.2
6,SQQK,≤ 0.2
7,LQVR,≤ 0.2
8,AETV,≤ 0.2
9,SRIC,≤ 0.2
10,LGNS,≤ 0.2
11,NQPS,≤ 0.2
12,LLNY,≤ 0.2
13,ATQI,≤ 0.2
14,AIWD,≤ 0.2
15,PRMG,≤ 0.2
16,ARTI,≤ 0.2
17,ISNC,≤ 0.2
18,PRPP,≤ 0.2
19,RCET,0.758
20,LYIS,≤ 0.2
21,FDPI,≤ 0.2
22,TFTR,≤ 0.2

# From a collection of fitness landscapes (doi:10.1016/j.celrep.2020.107928)
